# Test results reported in PubChem BioAssay AID463173 (ICCB-Longwood Screening Facility, Harvard Medical School, 2010).
# Screen size: about 52,000 compounds; about 1,700 (3.3%) were called active. No stated cut-off is given here; in the data, active means survival mostly below about 52% (no sharp cut-off); inactive means mostly above about 56%. The list shows a part of the results.
# System: Wild type
# Assay: S. aureus survival, RN4220 and DeltatarO strains – OD600, teichoic acid synthesis inhibitors, primary screen (AID 463173)
# Conditions: S. aureus RN4220 wild type/DeltatarO growth, OD600, 18 h, active compounds read low, screened at 18.75 µg/mL (by protocol)
row,Structure (SMILES),survival
1,Cn1nnnc1SCCCNCc1cc(Br)ccc1OCc1ccccc1F,inactive: 82%
2,Cc1ccc(CCNC(=O)c2ccc3c(c2)N(Cc2ccccc2F)C(=O)c2ccccc2S3=O)cc1 (configuration not stated),inactive: 90%
3,COc1cccc(NC(=O)CCCn2c(=O)c3cccn3c3cccnc32)c1,inactive: 85%
4,CC(=O)Nc1ccc(S(=O)(=O)N2CCN(C(=O)N3CCCC3)CC2)cc1,inactive: 101%
5,Fc1ccc(-c2csc(=Nc3cccc(C(F)(F)F)c3)n2Cc2ccc3c(c2)OCO3)cc1,inactive: 81%
6,CCOC(=O)c1c(S(=O)(=O)NCC(=O)Nc2ccc(C(C)=O)cc2)c(C)n(C)c1C,inactive: 89%
7,O=C1C(=O)N(C2CCNCC2)CCN1Cc1ccccc1,inactive: 81%
8,Fc1ccc(-c2cc(-c3ccccc3)c3c(n2)-c2ccccc2OC3)cc1,inactive: 61%
9,COc1ccc(-c2nc(CCNC(=O)c3ccccc3)cs2)cc1OC,inactive: 134%
10,Cc1cccc(C)c1NC(=O)CCCn1c(=O)c2cccn2c2ccccc21,inactive: 76%
11,Cc1nn(-c2ccccc2)c(OC(=O)c2ccccc2Cl)c1S(=O)(=O)c1ccccc1,inactive: 56%
12,CCOc1ccc(-n2cc(-c3ccccc3)c3c(NC4CCCCC4)ncnc32)cc1,inactive: 85%
13,Cc1ccc(CNC(=O)CCS(=O)(=O)c2ccc3c(c2)CC(C)N3C(=O)C2CC2)cc1 (configuration not stated),inactive: 63%
14,CCOc1ccc(NC(=O)CSC2=Nc3ccccc3C3=NC(CCC(=O)NCc4cccs4)C(=O)N23)cc1 (configuration not stated),inactive: 65%
15,CCOc1ccc(-c2nnc(SCC(=O)NCc3ccc(C)cc3)nc2-c2ccc(OCC)c(OC)c2)cc1OC,inactive: 60%
16,COc1ccc2c(c1)c1c(c(=O)n(-c3cccc(Cl)c3)c(=O)n1CC(=O)NCC1CCCO1)n2C (configuration not stated),inactive: 72%
17,COCCNC(=O)Cn1cnc2sc(C)c(S(=O)(=O)N3CCN(c4ccccc4OC)CC3)c2c1=O,inactive: 137%
18,CCc1nn2c(=O)cc(COC(=O)c3ccccc3NC(=O)COc3ccc(F)cc3)nc2s1,inactive: 73%
19,CCOC(=O)c1[nH]c(C)c(CCC(=O)Nc2cccc(C(F)(F)F)c2)c1C,inactive: 82%
20,COc1cc(CNCCSc2nnnn2C)ccc1OCc1ccc(F)cc1,inactive: 105%
21,CC(CNC(=O)c1nnc(Cc2cccc(F)c2)o1)c1ccccc1 (configuration not stated),inactive: 89%
22,CC1=CC(C)C(/C=N/O)C(C)C1 (configuration not stated),inactive: 104%

row,Structure (SMILES),survival
1,O=c1[nH]c(=O)n(-c2ccc(Cl)cc2)c(O)c1/C=N/n1cnnc1,inactive: 108%
2,CC(=O)N(CN1C(=O)c2ccccc2C1=O)c1ccccc1,inactive: 107%
3,c1ccc2c(c1)COC1(CCCCC1)N2,inactive: 101%
4,COc1ccccc1C(=O)NCCSc1c(C)[nH]c2ccccc12,inactive: 52%
5,COc1ccc(N2CC(NC(=O)C3CC3)CC2=O)cc1 (configuration not stated),inactive: 73%
6,CCC(NC(=O)Nc1ccc(OC)c(OC)c1)c1c(-n2cccc2)sc2c1CCN(C)C2 (configuration not stated),inactive: 65%
7,CC(=O)c1cccc(NC(=O)[C@H](Cc2ccccc2)N2Cc3ccccc3C2=O)c1,inactive: 81%
8,COc1ccc(CCNC(=O)c2ccc3c(c2)N=C(C)c2cc(C)ccc2S3)cc1OC,inactive: 77%
9,CCc1ccc(NC(=O)Cn2c(=O)c(CNc3ccccc3)cc3cc(OC)c(OC)cc32)cc1,inactive: 80%
10,COc1cccc(NC(=O)CSc2nc(=O)n(Cc3ccccn3)c3c2CCC3)c1,inactive: 68%
11,O=c1oc2ccc3ccccc3c2cc1-c1nnc(Nc2ccc(Cl)cc2Cl)s1,inactive: 72%
12,COc1ccc(-c2nc3ccccc3o2)cc1NC(=O)C(C)(C)Oc1ccc(Br)cc1,active: 0%
13,Cc1ccc(Cn2nnc3c(=O)[nH]c(C4CCCN(C(=O)c5ccco5)C4)nc32)cc1 (configuration not stated),inactive: 81%
14,Cc1cccc(NC(=O)C2CCCN(S(=O)(=O)c3c(C)[nH]c(=O)[nH]c3=O)C2)c1C (configuration not stated),inactive: 129%
15,COc1cccc(N2CCN(C(=O)CCS(=O)(=O)c3ccc4c(c3)CC(=O)N4C)CC2)c1,inactive: 89%
16,O=c1oc2ccccc2n1CCCOc1ccccc1Cl,active: 0%
17,O=C(Cn1c(=O)oc2cc(S(=O)(=O)N3CCCC3)ccc21)NCc1ccc(Cl)cc1,inactive: 138%
18,CS(=O)(=O)N1CCc2cc(C(=O)Nc3ccc(Cl)c(C(F)(F)F)c3)ccc21,inactive: 37%
19,Cc1ncc(CO)c2c1Oc1nc(-c3ccccc3)nc(SCC(=O)N3CCCCC3)c1C2,inactive: 97%
20,CCN(CC)C(=O)Cn1c(=O)n(Cc2ccc(C(=O)NCc3ccc(C)cc3)cc2)c(=O)c2ccccc21,inactive: 68%
21,O=C1OC(c2ccccc2)=N/C1=C1\OC(=O)c2ccccc21,inactive: 104%
22,Cc1ccc(NC(=O)c2cn3c4c(ccc(Cl)c4c2=O)OC(C)C3)cc1C (configuration not stated),inactive: 73%

row,Structure (SMILES),survival
1,CCOCCCNC(=O)c1cc2c(=O)n(C)c3ccccc3c2n1C,inactive: 82%
2,COc1ccc(NC(=O)Cn2c(=O)n(-c3cccc(C)c3)c(=O)c3c2c2cc(C)ccc2n3C)cc1Cl,inactive: 86%
3,O=C(C1CCC(CNS(=O)(=O)c2ccc(Br)s2)CC1)N1CCN(c2ccccc2Cl)CC1 (configuration not stated),inactive: 80%
4,CCOc1cc2sc(N3CCC(C(=O)Nc4ccccc4C(=O)OC)CC3)nc2cc1Br,inactive: 85%
5,Cc1ccc(NC(=O)COc2ccc(-c3nn(C)c(=O)c4ccccc34)cc2)cc1,inactive: 66%
6,CCOC(=O)c1cccc(NC(=O)c2cc3cc4cc(OC)ccc4nc3s2)c1,inactive: 81%
7,COc1ccc(C)cc1NC(=O)CN1C(=O)COc2ccc(S(=O)(=O)N3CCOCC3)cc21,inactive: 97%
8,O=C(COCc1cc(-c2cccs2)on1)Nc1cc(Cl)ccc1O,inactive: 79%
9,CCOC(=O)c1sc(NC(=O)C(C)Oc2ccc(OC)cc2)c(C(=O)OCC)c1C (configuration not stated),inactive: 88%
10,COc1ccc(C(=O)Nc2cc(-c3ccccc3)nn2-c2ccccc2)cc1,inactive: 70%
11,CN(C)c1ccc(CNC(=O)C2CCCN(S(=O)(=O)c3ccc4c(ccn4C)c3)C2)cc1 (configuration not stated),inactive: 88%
12,Cc1ccc(CNC(=O)C2CCN(S(=O)(=O)Cc3ccccc3)CC2)cc1,inactive: 85%
13,c1ccc(-c2nc3cc(Cc4ccc5oc(-c6ccccn6)nc5c4)ccc3o2)nc1,inactive: 113%
14,COc1ccc(C2N=C(N)Nc3nc4ccccc4n32)c(OC)c1OC (configuration not stated),inactive: 71%
15,O=C(CN1CCN(Cc2ccc3c(c2)OCO3)CC1)N1c2ccccc2CCc2ccccc21,inactive: 99%
16,CCN1CCC(N(Cc2cccc(OC)c2)C(=O)Nc2cccc(C)c2C)CC1,active: -3%
17,CC1=Nc2cc(C(=O)NCc3ccc(C)cc3)ccc2Sc2ccc(Cl)cc21,inactive: 73%
18,CCc1ccc(NC(=O)N2CCN(Cc3nc4ccc(C)cc4o3)CC2)cc1,inactive: 71%
19,CCN(CC)C(=O)CN1C(=O)COc2ccc(S(=O)(=O)N3CCOCC3)cc21,inactive: 76%
20,CCCCNC(=O)Nc1ccc2c(c1)N(C)C(=O)c1ccccc1S2,inactive: 78%
21,O=C(CSc1nc2c([nH]c3ccccc32)c(=O)n1-c1ccc(Cl)cc1)NC1CCCCC1,inactive: 72%
22,COc1ccc(NC(=O)Cn2nnc(C(=O)NCc3ccco3)c2N)c(OC)c1,inactive: 131%

row,Structure (SMILES),survival
1,COc1ccccc1NC(=O)c1c(C)cc(C)nc1SCC(=O)Nc1ccc(C)cc1,inactive: 78%
2,CC(=O)Nc1ccc(S(=O)(=O)NCC2CCC(C(=O)NCc3ccccc3)CC2)cc1 (configuration not stated),inactive: 82%
3,CCOc1cc(C(Nc2cc(C)ccn2)c2ccc3cccnc3c2O)ccc1OC (configuration not stated),inactive: 145%
4,COC(=O)C1=C(C)NC(=O)/C1=C\c1ccc(C)cc1,inactive: 110%
5,Cc1cc(Nc2cccc(Br)c2)n2c(nc3ccccc32)c1C#N,inactive: 67%
6,Cc1ccc(N2CCN(C(=O)c3cn(C)c4ccc(S(=O)(=O)N5CCCC5)cc4c3=O)CC2C)cc1 (configuration not stated),inactive: 134%
7,CCOc1ccc(NC(=O)CN2C(=O)c3ccccc3Sc3ccc(C(=O)OC)cc32)cc1,inactive: 81%
8,O=C(NCc1ccco1)c1ccc(S(=O)(=O)N2CCCc3ccccc32)cc1,inactive: 109%
9,Cc1cc(C)cc(-n2c(SCC(=O)NCc3ccc(F)cc3)nc3c([nH]c4ccccc43)c2=O)c1,inactive: 63%
10,Cc1ccc2c(c1)c(=O)c1ccccc1n2CCCC(=O)Nc1ccc(Cl)c(Cl)c1,inactive: 58%
11,COc1cc(NC(=O)CSc2nc(-c3ccccc3)no2)cc(OC)c1,inactive: 71%
12,COC(=O)c1sc(-c2ccccc2)cc1NC(=O)c1cccc(Cl)c1,inactive: 38%
13,Cc1cccc(C)c1NC(=O)C(=O)NCC(c1cccnc1)N1CCc2ccccc21 (configuration not stated),inactive: 84%
14,COc1cccc(NC(=O)CN2C(=O)CC(c3ccco3)Sc3ccccc32)c1 (configuration not stated),inactive: 84%
15,O=C(C1CCC(Cn2c(=O)c3sccc3n(Cc3ccccc3F)c2=O)CC1)N1CCOCC1 (configuration not stated),inactive: 71%
16,COc1cc(NC(=O)c2cc3c(=O)n(Cc4ccco4)ccc3nc2C)cc(OC)c1OC,inactive: 63%
17,CCOC(=O)c1c(NC(=O)c2ccc(S(=O)(=O)N(CC(C)C)CC(C)C)cc2)sc2c1CCN(CC)C2,inactive: 65%
18,CCN(CC)c1ccc(NC(=O)C2CCN(S(=O)(=O)c3ccc4c(c3)oc(=O)n4C)CC2)c(C)c1,inactive: 84%
19,CCOC(=O)N1CCc2c(sc(NCc3cccs3)c2C(=O)Nc2cc(Cl)ccc2OC)C1,inactive: 83%
20,Cc1ccc(S(=O)(=O)N2C(=S)SCC2(C)C)cc1,inactive: 107%
21,COc1ccccc1N1CCN(C(=O)c2ccc3c(c2)N(Cc2cc(C)ccc2C)C(=O)c2ccccc2S3(=O)=O)CC1,inactive: 81%
